The supplement of paper PMC8285479
Structures can show the parent of a compound that is named as a salt. ± gives the standard deviation of the averaged measurements. Whole data set: some 1,900 compounds, median “normalised cell viability (NPI; 0 = phenylarsine oxide control, 1 = DMSO control)” near 1, cut for the lowest 2% near 0.039. This is one part of the list.

System: NCI-H1944
Experiment: normalised cell viability (NPI; 0 = phenylarsine oxide control, 1 = DMSO control) (fraction of DMSO control); NCI-H1944 is a non-small cell lung cancer line; higher = more viable cells (less compound toxicity)
Conditions: 6 days
[1] = glucocorticoid arm: hydrocortisone 2.75 uM co-treatment, compound 1 µM
[2] = glucocorticoid arm: hydrocortisone 2.75 uM co-treatment, compound 5 µM
[3] = glucocorticoid arm: hydrocortisone 2.75 uM pre-treated 2 days and continued, compound 1 µM
[4] = glucocorticoid arm: hydrocortisone 2.75 uM pre-treated 2 days and continued, compound 5 µM
[5] = glucocorticoid arm: vehicle, compound 1 µM
[6] = glucocorticoid arm: vehicle, compound 5 µM
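Also: CTB read-out in 384-well plates, mean of triplicate wells, normalised per plate against 1 µM phenylarsine oxide and 0.1% DMSO, compounds added 24 h after seeding.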

| Compound | normalised cell viability [1] | normalised cell viability [2] | normalised cell viability [3] | normalised cell viability [4] | normalised cell viability [5] | normalised cell viability [6] |
| --- | --- | --- | --- | --- | --- | --- |
| Cc1c(NC(=O)c2ccc(C(C)(C)C)cc2)cccc1-c1cn(C)c(=O)c(Nc2ccc(C(=O)N3CCOCC3)cc2)n1 | 1.017 ± 0.0058 | 1.03 ± 0.032 | 1.007 ± 0.0058 | 0.987 ± 0.022 | 1 ± 0.0087 | 1.006 ± 0.0063 |
| O=c1[nH]cc(F)c(=O)[nH]1 [5-Fluorouracil] | 0.98 ± 0.002 | 0.766 ± 0.0085 | 0.981 ± 0.012 | 0.984 ± 0.015 | 0.9837 ± 0.0084 | 0.729 ± 0.03 |
| O=c1[nH]cc(F)c(=O)[nH]1 [5-Fluorouracil; Fluorouracil] | 1.043 ± 0.0058 | 0.706 ± 0.037 | 1.01 ± 0.015 | 0.838 ± 0.011 | 0.971 ± 0.0044 | 0.522 ± 0.032 |
| O=c1ncn2nc(Sc3ccc(F)cc3F)ccc2c1-c1c(Cl)cccc1Cl | 0.923 ± 0.033 | 0.893 ± 0.043 | 0.935 ± 0.008 | 0.948 ± 0.011 | 1 | 1 ± 0.013 |
| CC(C)Cc1ccc([C@H](C)C(=O)O)cc1 [S(+)-Ibuprofen] | 0.998 ± 0.011 | 1.01 ± 0.013 | 1.01 ± 0.014 | 1.04 ± 0.097 | 0.982 ± 0.0089 | 0.987 ± 0.012 |
| Cc1cncc(CN2CCC(=C3c4ccc(Cl)cc4CCc4cccnc43)CC2)c1 [Rupatadine Fumarate] | 1.02 ± 0.011 | 1.03 ± 0.03 | 1.017 ± 0.0058 | 1.04 ± 0.017 | 1.017 ± 0.0058 | 1.013 ± 0.0058 |
| CC(C)C(=O)SCCCCCCC(=O)Nc1nc(-c2ccccc2)cs1 | 1.005 ± 0.0057 | 1.04 ± 0.023 | 1 ± 0.015 | 1.02 ± 0.021 | 1.003 ± 0.0056 | 0.999 ± 0.018 |
| N=c1ccn2c(n1)O[C@H]1[C@H](O)[C@@H](CO)O[C@H]12 [Ancitabine hydrochloride] | 0.16 ± 0.012 | 0.103 ± 0.012 | 0.652 ± 0.079 | 0.211 ± 0.0064 | 0.0511 ± 0.0082 | 0.0465 ± 0.00057 |
| C[N+](C)(C)CCO.[Br-] [Choline bromide] | 1.017 ± 0.0058 | 1 ± 0.019 | 1.017 ± 0.0058 | 1.02 | 0.995 ± 0.0078 | 0.998 ± 0.014 |
| COC(=O)[C@H]1[C@H]2C[C@@H]3c4[nH]c5cc(OC)ccc5c4CCN3C[C@H]2C[C@@H](OC(=O)c2cc(OC)c(OC)c(OC)c2)[C@@H]1OC [Reserpine] | 0.9903 ± 0.0067 | 1.01 ± 0.025 | 0.99 ± 0.0072 | 1.004 ± 0.0078 | 0.999 ± 0.011 | 0.997 ± 0.0052 |
| CC(C)C[C@H](NC(=O)[C@@H](O)[C@H](N)Cc1ccccc1)C(=O)O [Bestatin hydrochloride] | 0.996 ± 0.0046 | 1.02 ± 0.011 | 0.989 ± 0.01 | 1.02 ± 0.033 | 0.979 ± 0.012 | 0.9903 ± 0.0015 |
| CNC(=C[N+](=O)[O-])NCCSCc1ccc(CN(C)C)o1 [Ranitidine hydrochloride] | 0.9843 ± 0.0055 | 1.04 ± 0.061 | 0.872 ± 0.22 | 0.999 ± 0.011 | 0.99 ± 0.0056 | 0.987 ± 0.0044 |
| CNC(=C[N+](=O)[O-])NCCSCc1ccc(CN(C)C)o1 [Ranitidine] | 1.01 ± 0.011 | 1.01 ± 0.013 | 1.01 ± 0.022 | 0.9923 ± 0.007 | 1.005 ± 0.0092 | 1.003 ± 0.0058 |
